# The list shows a part of the results.
# B1: HPAIIITrx (Helix pomatia), Q1KM18 (protein)
# chain: MLFVTIISLGLLAIVHGQCALKTIAFSAAIDREQTFDANQVVIYDIVITNHGNAYDNSTGLFTAPVDGMYSFQLNLLTIKEKEGWLELVHNGQLKVSVYAKQDSTYDSSSNSVIIKMKEGDRVNVRAHKKSGLFGRDDELYNTFSGHFLSGL
# What was measured:
# Experiment in all cases: glycan array binding signal (z-score within array); higher = stronger binding
# Conditions in all cases: glycan notation: IUPAC condensed, linker removed
# Glc(a1-6)Glc(a1-6)Glc = target: Glc(a1-6)Glc(a1-6)Glc
# Method in brief: (§1)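 Glycan array binding is given as a within-array Z-score, which can be read as non-binding when negative. The arrays, 3228 of them, came from the Consortium for Functional Glycomics database and were retained only where the protein sequence was available. Z-scores were averaged across arrays of the same protein sequence at different concentrations or buffers and across linkers.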
# [1] = target: Glc(a1-6)Glc(a1-6)Glc(a1-6)Glc
# Method in brief: as §1
# Glc(b1-4)Glc = target: Glc(b1-4)Glc
# Method in brief: as §1
# Glc(b1-6)Glc = target: Glc(b1-6)Glc
# Method in brief: as §1
# GlcA(b1-3)Gal = target: GlcA(b1-3)Gal
# Method in brief: as §1
# GlcA(b1-3)GlcNAc = target: GlcA(b1-3)GlcNAc
# Method in brief: as §1
# GlcA(b1-6)Gal = target: GlcA(b1-6)Gal
# Method in brief: as §1
# [2] = target: GlcA3S(b1-3)Gal(b1-4)GlcNAc(b1-2)Man
# Method in brief: as §1
# [3] = target: GlcA3S(b1-3)Gal(b1-4)GlcNAc(b1-3)Gal(b1-4)Glc
# Method in brief: as §1
# [4] = target: GlcNAc(a1-3)Gal(b1-4)GlcNAc
# Method in brief: as §1
# [5] = target: GlcNAc(a1-4)Gal(b1-3)GlcNAc
# Method in brief: as §1
# [6] = target: GlcNAc(a1-4)Gal(b1-4)GalNAc
# Method in brief: as §1
# [7] = target: GlcNAc(a1-4)Gal(b1-4)GlcNAc
# Method in brief: as §1
# [8] = target: GlcNAc(a1-4)Gal(b1-4)GlcNAc(b1-3)Gal(b1-4)Glc
# Method in brief: as §1
# [9] = target: GlcNAc(a1-4)Gal(b1-4)GlcNAc(b1-3)Gal(b1-4)GlcNAc
# Method in brief: as §1
# [10] = target: GlcNAc(a1-4)Gal(b1-4)GlcNAc(b1-3)Gal(b1-4)GlcNAc(b1-3)Gal(b1-4)GlcNAc
# Method in brief: as §1
# [11] = target: GlcNAc(a1-4)Gal(b1-4)GlcNAc(b1-3)Gal(b1-4)[Fuc(a1-3)]GlcNAc(b1-3)Gal(b1-4)[Fuc(a1-3)]GlcNAc
# Method in brief: as §1
# [12] = target: GlcNAc(a1-6)Gal(b1-4)GlcNAc
# Method in brief: as §1
# [13] = target: GlcNAc(b1-2)Gal(b1-3)GalNAc
# Method in brief: as §1
# [14] = target: GlcNAc(b1-2)Man(a1-3)[GlcNAc(b1-2)Man(a1-6)]Man(b1-4)GlcNAc(b1-4)GlcNAc
# Method in brief: as §1
# [15] = target: GlcNAc(b1-2)Man(a1-3)[GlcNAc(b1-2)Man(a1-6)]Man(b1-4)GlcNAc(b1-4)[Fuc(a1-6)]GlcNAc
# Method in brief: as §1
# [16] = target: GlcNAc(b1-2)Man(a1-3)[GlcNAc(b1-4)][GlcNAc(b1-2)Man(a1-6)]Man(b1-4)GlcNAc(b1-4)GlcNAc
# Method in brief: as §1
# [17] = target: GlcNAc(b1-2)Man(a1-3)[GlcNAc(b1-4)][GlcNAc(b1-2)Man(a1-6)]Man(b1-4)GlcNAc(b1-4)[Fuc(a1-6)]GlcNAc
# Method in brief: as §1
# [18] = target: GlcNAc(b1-2)[GlcNAc(b1-4)]Man(a1-3)[GlcNAc(b1-2)Man(a1-6)]Man(b1-4)GlcNAc(b1-4)GlcNAc
# Method in brief: as §1
# [19] = target: GlcNAc(b1-2)[GlcNAc(b1-4)]Man(a1-3)[GlcNAc(b1-4)][GlcNAc(b1-2)Man(a1-6)]Man(b1-4)GlcNAc(b1-4)GlcNAc
# Method in brief: as §1
# [20] = target: GlcNAc(b1-2)[GlcNAc(b1-4)]Man(a1-3)[GlcNAc(b1-4)][GlcNAc(b1-2)[GlcNAc(b1-6)]Man(a1-6)]Man(b1-4)GlcNAc(b1-4)GlcNAc
# Method in brief: as §1
# [21] = target: GlcNAc(b1-2)[GlcNAc(b1-4)]Man(a1-3)[GlcNAc(b1-4)][GlcNAc(b1-2)[GlcNAc(b1-6)]Man(a1-6)]Man(b1-4)GlcNAc(b1-4)[Fuc(a1-6)]GlcNAc
# Method in brief: as §1
# [22] = target: GlcNAc(b1-2)[GlcNAc(b1-6)]Man(a1-6)[GlcNAc(b1-2)Man(a1-3)]Man(b1-4)GlcNAc(b1-4)GlcNAc
# Method in brief: as §1
# [23] = target: GlcNAc(b1-2)[GlcNAc(b1-6)]Man(a1-6)[GlcNAc(b1-2)Man(a1-3)]Man(b1-4)GlcNAc(b1-4)[Fuc(a1-6)]GlcNAc
# Method in brief: as §1
# [24] = target: GlcNAc(b1-2)[GlcNAc(b1-6)]Man(a1-6)[GlcNAc(b1-4)][GlcNAc(b1-2)Man(a1-3)]Man(b1-4)GlcNAc(b1-4)GlcNAc
# Method in brief: as §1
# GlcNAc(b1-3)Fuc = target: GlcNAc(b1-3)Fuc
# Method in brief: as §1
# GlcNAc(b1-3)Gal = target: GlcNAc(b1-3)Gal
# Method in brief: as §1
# [25] = target: GlcNAc(b1-3)Gal(b1-3)GalNAc
# Method in brief: as §1
# GlcNAc(b1-3)Gal(b1-4)Glc = target: GlcNAc(b1-3)Gal(b1-4)Glc
# Method in brief: as §1
# [26] = target: GlcNAc(b1-3)Gal(b1-4)GlcNAc
# Method in brief: as §1
# [27] = target: GlcNAc(b1-3)Gal(b1-4)GlcNAc(b1-2)Man(a1-3)[GlcNAc(b1-3)Gal(b1-4)GlcNAc(b1-2)Man(a1-6)]Man(b1-4)GlcNAc(b1-4)GlcNAc
# Method in brief: as §1
# [28] = target: GlcNAc(b1-3)Gal(b1-4)GlcNAc(b1-2)Man(a1-3)[GlcNAc(b1-3)Gal(b1-4)GlcNAc(b1-2)Man(a1-6)]Man(b1-4)GlcNAc(b1-4)[Fuc(a1-6)]GlcNAc
# Method in brief: as §1
# [29] = target: GlcNAc(b1-3)Gal(b1-4)GlcNAc(b1-2)[GlcNAc(b1-3)Gal(b1-4)GlcNAc(b1-6)]Man(a1-6)[GlcNAc(b1-3)Gal(b1-4)GlcNAc(b1-2)Man(a1-3)]Man(b1-4)GlcNAc(b1-4)GlcNAc
# Method in brief: as §1
# [30] = target: GlcNAc(b1-3)Gal(b1-4)GlcNAc(b1-3)Gal(b1-4)GlcNAc
# Method in brief: as §1
# [31] = target: GlcNAc(b1-3)Gal(b1-4)GlcNAc(b1-3)Gal(b1-4)GlcNAc(b1-2)Man(a1-3)[GlcNAc(b1-3)Gal(b1-4)GlcNAc(b1-3)Gal(b1-4)GlcNAc(b1-2)Man(a1-6)]Man(b1-4)GlcNAc(b1-4)GlcNAc
# Method in brief: as §1
# [32] = target: GlcNAc(b1-3)Gal(b1-4)GlcNAc(b1-3)Gal(b1-4)GlcNAc(b1-2)Man(a1-3)[GlcNAc(b1-3)Gal(b1-4)GlcNAc(b1-3)Gal(b1-4)GlcNAc(b1-2)Man(a1-6)]Man(b1-4)GlcNAc(b1-4)[Fuc(a1-6)]GlcNAc
# Method in brief: as §1
# [33] = target: GlcNAc(b1-3)Gal(b1-4)GlcNAc(b1-3)Gal(b1-4)GlcNAc(b1-2)[GlcNAc(b1-3)Gal(b1-4)GlcNAc(b1-3)Gal(b1-4)GlcNAc(b1-6)]Man(a1-6)[GlcNAc(b1-3)Gal(b1-4)GlcNAc(b1-3)Gal(b1-4)GlcNAc(b1-2)Man(a1-3)]Man(b1-4)GlcNAc(b1-4)[Fuc(a1-6)]GlcNAc
# Method in brief: as §1
# [34] = target: GlcNAc(b1-3)Gal(b1-4)GlcNAc(b1-3)Gal(b1-4)GlcNAc(b1-3)Gal(b1-4)GlcNAc(b1-2)Man(a1-3)[GlcNAc(b1-3)Gal(b1-4)GlcNAc(b1-3)Gal(b1-4)GlcNAc(b1-3)Gal(b1-4)GlcNAc(b1-2)Man(a1-6)]Man(b1-4)GlcNAc(b1-4)GlcNAc
# Method in brief: as §1
# [35] = target: GlcNAc(b1-3)Gal(b1-4)GlcNAc(b1-3)Gal(b1-4)GlcNAc(b1-3)Gal(b1-4)GlcNAc(b1-2)Man(a1-3)[GlcNAc(b1-3)Gal(b1-4)GlcNAc(b1-3)Gal(b1-4)GlcNAc(b1-3)Gal(b1-4)GlcNAc(b1-2)Man(a1-6)]Man(b1-4)GlcNAc(b1-4)[Fuc(a1-6)]GlcNAc
# Method in brief: as §1
# [36] = target: GlcNAc(b1-3)Gal(b1-4)GlcNAc(b1-3)Gal(b1-4)GlcNAc(b1-3)Gal(b1-4)GlcNAc(b1-2)[GlcNAc(b1-3)Gal(b1-4)GlcNAc(b1-3)Gal(b1-4)GlcNAc(b1-3)Gal(b1-4)GlcNAc(b1-6)]Man(a1-6)[GlcNAc(b1-3)Gal(b1-4)GlcNAc(b1-3)Gal(b1-4)GlcNAc(b1-3)Gal(b1-4)GlcNAc(b1-2)Man(a1-3)]Man(b1-4)GlcNAc(b1-4)[Fuc(a1-6)]GlcNAc
# Method in brief: as §1
binder,measurement,setting,value
B1,glycan array binding signal (z-score),Glc(a1-6)Glc(a1-6)Glc,-0.348
same,glycan array binding signal (z-score),[1],0.008
same,glycan array binding signal (z-score),Glc(b1-4)Glc,-0.122
same,glycan array binding signal (z-score),Glc(b1-6)Glc,0.224
same,glycan array binding signal (z-score),GlcA(b1-3)Gal,-0.167
same,glycan array binding signal (z-score),GlcA(b1-3)GlcNAc,-0.338
same,glycan array binding signal (z-score),GlcA(b1-6)Gal,-0.196
same,glycan array binding signal (z-score),[2],-0.21
same,glycan array binding signal (z-score),[3],-0.304
same,glycan array binding signal (z-score),[4],0.416
same,glycan array binding signal (z-score),[5],0.392
same,glycan array binding signal (z-score),[6],-0.052
same,glycan array binding signal (z-score),[7],1.84
same,glycan array binding signal (z-score),[8],1.52
same,glycan array binding signal (z-score),[9],1.69
same,glycan array binding signal (z-score),[10],2.06
same,glycan array binding signal (z-score),[11],1.47
same,glycan array binding signal (z-score),[12],-0.341
same,glycan array binding signal (z-score),[13],-0.179
same,glycan array binding signal (z-score),[14],-0.058
same,glycan array binding signal (z-score),[15],-0.293
same,glycan array binding signal (z-score),[16],-0.401
same,glycan array binding signal (z-score),[17],-0.48
same,glycan array binding signal (z-score),[18],-0.41
same,glycan array binding signal (z-score),[19],-0.42
same,glycan array binding signal (z-score),[20],-0.387
same,glycan array binding signal (z-score),[21],-0.517
same,glycan array binding signal (z-score),[22],-0.381
same,glycan array binding signal (z-score),[23],-0.399
same,glycan array binding signal (z-score),[24],-0.453
same,glycan array binding signal (z-score),GlcNAc(b1-3)Fuc,-0.39
same,glycan array binding signal (z-score),GlcNAc(b1-3)Gal,-0.437
same,glycan array binding signal (z-score),[25],-0.233
same,glycan array binding signal (z-score),GlcNAc(b1-3)Gal(b1-4)Glc,-0.205
same,glycan array binding signal (z-score),[26],-0.37
same,glycan array binding signal (z-score),[27],-0.364
same,glycan array binding signal (z-score),[28],-0.158
same,glycan array binding signal (z-score),[29],-0.003
same,glycan array binding signal (z-score),[30],-0.404
same,glycan array binding signal (z-score),[31],0.693
same,glycan array binding signal (z-score),[32],-0.228
same,glycan array binding signal (z-score),[33],-0.265
same,glycan array binding signal (z-score),[34],-0.4
same,glycan array binding signal (z-score),[35],-0.269
same,glycan array binding signal (z-score),[36],-0.301

# From the supplement of paper PMC8728848
